This is one part of the list.

The test deals with PF3D7_0420300 AP2 domain 1 (GST-tagged). As to the kind of experiment: gcPBM binding intensity (ln(normalized median fluorescence intensity)); higher = stronger DNA binding. The method, boiled down:
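Binding intensity is defined as the maximum Masliner-normalised natural-log median intensity across replicate spots for either probe orientation. It was measured on an Agilent 4 × 180k array of primer-extended double-stranded 36-bp intergenic genomic probes and negative controls, to which GST-tagged P. falciparum DNA-binding domains made in E. coli were applied for 1 h in 1× PBS with 1% milk, 0.2 mg/ml BSA, 0.5% salmon testes DNA and 0.03% Triton X-100. Detection was by Alexa488 anti-GST antibody and scanning at 488 nm.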
As to ATATATTTCAAAGGGGTGCAGGCATATTTAAGCAAA, the “gcPBM binding intensity (ln)” value is 9.26. In the case of “TCTTTTTAATTTATATGTACTTATATTAATTATAAG [XGTACX_site7524]”, the “gcPBM binding intensity (ln)” value was 9.15.

For “TGAGCTTCAACAATATGTACATAAAATATATTACAT [XGTACX_site4763]”, the “gcPBM binding intensity (ln)” value is 9.13. Regarding “TTAATAAAAGCCCATGCACACCTTAGAAAGTTTTAT [CACACA_site8003]”, the “gcPBM binding intensity (ln)” value worked out at 9.21. As for “GTATTATAGTATAATACACACCCAAATATTAAAAAG [CACACA_site7404]”, the figure is 9.5; as for “AAAAAAAAAAAAAAAGCACACATCATATTATAATTC [CACACA_site3355]”, 9.55; as for “AGTTATTAAAAATGTGCATGCAATGGTTTCTCTTAA [TGCATGCA_site634]”, 9.2. “AAAAAAACATAACAAAATGAAACAAAACAAAAAGAA [GTGCAC_negctrl_site577]”: the “gcPBM binding intensity (ln)” value worked out at 9.93.

With “ATTTATAATGATTTTTTTAGTAATCTTGTTATTTTT [XGTACX_negctrl_site373]”, the “gcPBM binding intensity (ln)” value amounted to 9.27. On to “TCTTTTTTTTCTTTTTTTTTATTTAAATATCAAGTA [CACACA_negctrl_site1354]”, for which the “gcPBM binding intensity (ln)” value is 9.15. The same measure for “AGGAGGTCAGTTCACAGTACCCAGAAACTCTACGAG [XGTACX_site2006]”: 8.87; for “GTATGTATATATATATGTACATACTGTTTATCGTTA [XGTACX_site6168]”: 9.37; for “AACGAAAACACTACGTGTACCAAACGTCCTACTAAC [XGTACX_site4915]”: 9.34. As to “GTATATATTTTTATTTAATAATTTGTTTATTTATTC [CACACA_negctrl_site647]”, the “gcPBM binding intensity (ln)” value is 9.41. Take “CATACATATACATACAGTACATATTTTTTGTCAATT [XGTACX_site7357]”: the “gcPBM binding intensity (ln)” value came to 9.29.

Consider “TTATATGGCTCCATTTGTACGCATCCATGTTTTTAT [XGTACX_site6590]”, for which the “gcPBM binding intensity (ln)” value was 9.55. Consider “CTAATGATCATATATACACACACACTAATAAAAAAA [CACACA_site9329]”, for which the “gcPBM binding intensity (ln)” value was found to be 9.97. In the case of “TATATTTAGATATATACACACATTAGCATTTTCATA [CACACA_site6902]”, the “gcPBM binding intensity (ln)” value was determined as 9.4. Regarding “AAAGAATTTGCATATACACACAAAAAGATATATACA [CACACA_site6318]”, the “gcPBM binding intensity (ln)” value was found to be 9.54. On to “CATAATACAGATAACACACACAATTATACATAAAAT [CACACA_site5742]”, for which the “gcPBM binding intensity (ln)” value is 10. As for “TTTCACTTTTTCCAAAGTACATATATAAAAATTAAT [XGTACX_site6947]”, the figure is 8.84. The same measure for “TTTTAATAAATATACACACACAAAAAAAAAAAAAAA [CACACA_site3971]”: 9.47; for “AATATATAGAAACACACACACAAAAAAAAAAAAAAA [CACACA_site1326]”: 9.83; for “AATAAAAAGACATTCACACATATATATTATTTATAT [CACACA_site5936]”: 9.4.

On to “AGATTATAAAATTCTACACACATATATACATATATA [CACACA_site3485]”, for which the “gcPBM binding intensity (ln)” value stood at 9.52. Take “GACCAATTCAAATATGCACACAAATTTGAAAACGAT [CACACA_site9202]”: the “gcPBM binding intensity (ln)” value worked out at 9.43. The same measure for “ATATAAAAAAAAAAAAGTACACATAAACAAATGCAT [XGTACX_site4241]”: 9.41; for “ATATGTAGAAGTAATGCACACATATGTATATATATA [CACACA_site8796]”: 9.57. The same measure for “TTAAAATATAATATTCGTACTTATTCAAAAGAAAAA [XGTACX_site2122]”: 8.75; for “TATATATATATATAATGTACATATATATAATATACA [XGTACX_site1552]”: 9.16. With “ATTTCTACTAAAAATACACACGATGATACAACGAAG [CACACA_site1755]”, the “gcPBM binding intensity (ln)” value worked out at 9.58.

With “ATAATGTAAAAGTAAACACACACATATATATATACA [CACACA_site8793]”, the “gcPBM binding intensity (ln)” value worked out at 9.88. In the case of “GTCTTAAAAATTAAAACACACGTTCACTTTCATATT [CACACA_site5803]”, the “gcPBM binding intensity (ln)” value was 9.59.

For “AATTAATAACAAAATAAACACACATATATAAATACA [CACACA_site8456]”, the “gcPBM binding intensity (ln)” value was determined as 9.84.

With “ACCTCATAATATTTAACACACAAAATTAAATGTATG [CACACA_site6898]”, the “gcPBM binding intensity (ln)” value worked out at 9.5. For the sequence “TTTCAAAAAAATAATGTGCACATTAGAAAATAAATA [GTGCAC_site9416]”, the “gcPBM binding intensity (ln)” value was found to be 9.2. As for “ACATATATTTAAAAATGTACTTACATATATTTTTTA [XGTACX_site6050]”, the figure is 9.07; as for “TTTTATACATATTTTACACACTAAAATATACATATA [CACACA_site324]”, 9.33; as for “GAAGTATTTATTTATGCATGCAAATATACAAAAAAA [TGCATGCA_site975]”, 9.01. As for “TTATGTTGTAAATGCACACATACATAAACTCAGTTT [CACACA_site5639]”, the “gcPBM binding intensity (ln)” value was determined as 9.38.

With “TAAATATTTTTAGATGCATGCAATAATTACCCAAAG [TGCATGCA_site636]”, the “gcPBM binding intensity (ln)” value is 9.22. In the case of “TTTTTTTTTTCTGAAAGTACTAATTTCCTGGAGGAA [XGTACX_site759]”, the “gcPBM binding intensity (ln)” value worked out at 8.6. On to TTATTATTATTACTAGTGCATTAATTATATATGTAA, for which the “gcPBM binding intensity (ln)” value was 9.19.

Consider “ATAAAATAAATATTTTGTTATTTATTTAATCTAATA [XGTACX_negctrl_site404]”, for which the “gcPBM binding intensity (ln)” value was determined as 8.82.
